In a compilation of properties of binary mixtures (doi:10.1007/s10953-013-9991-z):
The densities may have been worked out from excess volumes.

Assay: xn = mol fraction of the nth substance listed
Settings: 101 kPa

CN(C)C=O + CC[n+]1ccn(C)c1.F[B-](F)(F)F
x1 = 1
Settings	mass density [kg/m3]
303.15 K	939.8
308.15 K	935.1

CNC=O + CC[n+]1ccn(C)c1.F[B-](F)(F)F
mass density [kg/m3]
Settings	293.15 K	298.15 K	303.15 K	308.15 K
x1 = 0.0661	1278.2	–	–	–
x1 = 0.0886	1276	1272	1268.5	1264.3
x1 = 0.1287	1272	1268	1264.5	–
x1 = 0.1757	1267	1263	1259.5	1255.3
x1 = 0.2258	1261	1257	1253.5	1249.4
x1 = 0.2783	1254.2	1250.3	1246.7	1242.6
x1 = 0.3287	–	1243.1	–	–
x1 = 0.3729	1240	1236.1	–	–
x1 = 0.4259	1230.8	1226.9	1223.2	1219.2
x1 = 0.4766	1220.9	1217.1	1213.4	1209.4
x1 = 0.5291	1209.6	–	1202	1198
x1 = 0.5749	1198.6	1194.7	–	1186.9
x1 = 0.6252	1185.1	1181.2	1177.4	1173.3
x1 = 0.6773	–	1165.3	1161.5	1157.5
x1 = 0.7281	1151.9	–	1144	–
x1 = 0.7744	1134	–	1126	1121.8
x1 = 0.8271	1110.7	–	1102.5	1098.2
x1 = 0.8782	1084.5	1080.1	–	–
x1 = 1	–	999	994.7	–

CC[n+]1ccn(C)c1.F[B-](F)(F)F + CN(C)C=O
mass density [kg/m3]
Settings	293.15 K	298.15 K	303.15 K	308.15 K
x2 = 0	1283.9	1279.9	1276.3	–
x2 = 0.0681	1275.7	1271.8	–	–
x2 = 0.0903	1272.8	1269	1265.4	1261.3
x2 = 0.1257	–	–	1260.6	1256.6
x2 = 0.1717	1261.2	–	1253.9	1250
x2 = 0.2275	1252.2	1248.5	1244.9	1241
x2 = 0.2781	1243.2	1239.5	1235.9	1232.1
x2 = 0.3276	1233.6	1229.9	1226.2	1222.6
x2 = 0.3781	1222.7	1219.1	1215.4	1211.8
x2 = 0.4227	1212.3	1208.7	1204.9	1201.3
x2 = 0.4757	1198.7	–	1191.2	1187.7
x2 = 0.5258	1184.5	–	–	1173.5
x2 = 0.5697	1170.9	1167.2	–	1159.7
x2 = 0.6261	1151.5	1147.9	1143.9	1140.2
x2 = 0.6758	1132.7	1129	1124.8	1121.2
x2 = 0.7291	1110.2	–	1102.3	1098.5
x2 = 0.769	1091.7	–	1083.8	1079.8
x2 = 0.8268	1062.1	1058.3	1054	1049.8
x2 = 0.8789	–	1028.3	1023.9	1019.6

CC[n+]1ccn(C)c1.F[B-](F)(F)F + CNC=O
x2 = 0
Settings	mass density [kg/m3]
293.15 K	1283.9
298.15 K	1279.9
303.15 K	1276.3
308.15 K	1272.1
